Measurements: EPA's CvTdb concentration-time database
Further values from the same series stand in other lists.

Experiments:
Assay in all cases: concentration in plasma after dosing
[1] = system: Rat; conditions: 20 min; dosed: Bromochloroacetic acid; 10 mg/kg; iv; Male; F344
[2] = system: Rat; conditions: 0.75 h; dosed: Bromochloroacetic acid; 100 mg/kg; oral; Male; F344
[3] = system: Rat
[4] = system: Rat; conditions: 20 min; dosed: Pyridine; 10 mg/kg; oral; Male; Harlan Sprague Dawley
[5] = system: Rat; conditions: dosed: Pyridine, 5 mg/kg, iv, Female, F344
[6] = system: Rat; conditions: 40 min; dosed: Pyridine; 10 mg/kg; oral; Female; Harlan Sprague-Dawley

O=C(O)C(Cl)Br (stereo not given) [Bromochloroacetic acid]
Conditions	concentration in plasma [ng/mL]
[1]	1590
[2]	40300

concentration in plasma [ng/mL], [3], dosed: Bromochloroacetic acid
Conditions	Female	Male
0.25 h, 40 mg/kg, oral, F344	7070	8230
0.25 h, 100 mg/kg, oral, F344	29400	6570
0.75 h, 100 mg/kg, oral, F344	47200	34200
1 h, 80 mg/kg, iv, F344	–	23500
1 h, 80 mg/kg, iv, Harlan Sprague-Dawley	17100	–
1.5 h, 40 mg/kg, oral, Harlan Sprague Dawley	5940	–
1.5 h, 100 mg/kg, oral, F344	26000	28500
2 h, 40 mg/kg, oral, F344	–	3270
2 h, 40 mg/kg, oral, Harlan Sprague Dawley	3150	–
2 h, 80 mg/kg, iv, F344	–	4440
2 h, 80 mg/kg, iv, Harlan Sprague-Dawley	2990	–
2 min, 10 mg/kg, iv, F344	–	19200
2 min, 100 mg/kg, oral, F344	3410	1970
3 h, 40 mg/kg, oral, F344	1580	1790
3 h, 80 mg/kg, iv, F344	–	554
3 h, 80 mg/kg, iv, Harlan Sprague-Dawley	562	–
3 h, 100 mg/kg, oral, F344	5700	11100
4 h, 40 mg/kg, oral, F344	1220	–
4.5 h, 100 mg/kg, oral, F344	7030	3780
5 min, 10 mg/kg, iv, F344	–	11800
5 min, 100 mg/kg, oral, F344	9340	5310
6 h, 40 mg/kg, oral, F344	239	–
6 h, 100 mg/kg, oral, F344	1020	301
7 h, 100 mg/kg, oral, F344	114	523
10 min, 10 mg/kg, iv, F344	–	4440
10 min, 40 mg/kg, oral, F344	–	6840
10 min, 40 mg/kg, oral, Harlan Sprague Dawley	5800	–
10 min, 100 mg/kg, oral, F344	9610	5100
20 min, 10 mg/kg, iv, F344	–	1170
20 min, 40 mg/kg, oral, F344	11000	–
20 min, 100 mg/kg, oral, F344	29900	11200
40 min, 10 mg/kg, iv, F344	–	201

c1ccncc1 [Pyridine]
Conditions	concentration in plasma [ng/mL]
[4]	5900
[6]	1470

[5]
Conditions	concentration in plasma [ng/mL]
0.5 h	3260
8 h	954

concentration in plasma [ng/mL], [3], dosed: Pyridine
Conditions	iv	oral
0.05 h, 5 mg/kg, Female, F344	4590	–
0.25 h, 0.5 mg/kg, Male, F344	269	–
0.25 h, 5 mg/kg, Female, F344	3510	–
0.25 h, 10 mg/kg, Male, Harlan Sprague Dawley	4190	–
0.5 h, 5 mg/kg, Female, F344	3200	2790
0.5 h, 25 mg/kg, Female, F344	–	17500
0.5 h, 100 mg/kg, Male, F344	–	44700
1 h, 0.5 mg/kg, Male, F344	54.4	–
1 h, 5 mg/kg, Female, F344	–	3300
1 h, 5 mg/kg, Male, F344	2000	–
1 h, 10 mg/kg, Female, Harlan Sprague-Dawley	–	869
1 h, 10 mg/kg, Male, F344	–	2540
1 h, 10 mg/kg, Male, Harlan Sprague Dawley	–	4080
1 h, 10 mg/kg, Male, Harlan Sprague Dawley - this seems too small	–	3450
1 h, 25 mg/kg, Female, F344	–	18400
1 h, 50 mg/kg, Female, F344	–	21100
1 h, 50 mg/kg, Male, Harlan Sprague Dawley	–	30000
1 h, 100 mg/kg, Male, F344	–	59900
1 h, 200 mg/kg, Female, F344	–	91300
1 h, 200 mg/kg, Female, Harlan Sprague Dawley	–	84500
2 h, 5 mg/kg, Female, F344	2560	2750
2 h, 10 mg/kg, Male, F344	–	268
2 h, 10 mg/kg, Male, Harlan Sprague Dawley	2530	2710
2 h, 25 mg/kg, Female, F344	–	18200
2 h, 50 mg/kg, Female, F344	–	23300
2 h, 50 mg/kg, Male, Harlan Sprague Dawley	–	21600
2 h, 100 mg/kg, Female, F344	–	60700
2 h, 200 mg/kg, Female, F344	–	92100
2 h, 200 mg/kg, Female, Harlan Sprague Dawley	–	115000
2 min, 10 mg/kg, Female, F344	513	–
2 min, 10 mg/kg, Male, Harlan Sprague Dawley	–	1260
2 min, 50 mg/kg, Female, F344	–	610
2 min, 50 mg/kg, Male, Harlan Sprague Dawley	–	17700
2 min, 200 mg/kg, Female, F344	–	21500
2 min, 200 mg/kg, Female, Harlan Sprague Dawley	–	91200
3 h, 5 mg/kg, Male, F344	2610	–
4 h, 5 mg/kg, Female, F344	–	2290
4 h, 10 mg/kg, Male, Harlan Sprague Dawley	–	818
4 h, 25 mg/kg, Female, F344	–	16000
4 h, 50 mg/kg, Female, F344	–	23500
4 h, 50 mg/kg, Female, Harlan Sprague Dawley	–	25900
4 h, 50 mg/kg, Male, Harlan Sprague Dawley	–	17600
4 h, 100 mg/kg, Female, Harlan Sprague-Dawley	–	60000
4 h, 100 mg/kg, Male, F344	–	56800
5 h, 200 mg/kg, Female, F344	–	57400
5 h, 200 mg/kg, Female, Harlan Sprague Dawley	–	90700
5 min, 0.5 mg/kg, Male, F344	527	–
5 min, 5 mg/kg, Female, F344	–	1450
5 min, 5 mg/kg, Female, Harlan Sprague-Dawley	6050	–
5 min, 10 mg/kg, Female, F344	2090	–
5 min, 10 mg/kg, Male, Harlan Sprague Dawley	230	–
5 min, 25 mg/kg, Female, F344	–	11700
5 min, 100 mg/kg, Female, Harlan Sprague-Dawley	–	23300
5 min, 100 mg/kg, Male, F344	–	20300
6 h, 5 mg/kg, Female, F344	1440	1900
6 h, 25 mg/kg, Female, F344	–	14800
6 h, 50 mg/kg, Female, F344	–	9520
6 h, 50 mg/kg, Female, Harlan Sprague Dawley	–	19800
6 h, 100 mg/kg, Male, F344	–	56100
8 h, 5 mg/kg, Female, F344	923	827
8 h, 5 mg/kg, Female, Harlan Sprague-Dawley	680	–
8 h, 25 mg/kg, Female, F344	–	16600
8 h, 100 mg/kg, Male, F344	–	71600
9 h, 200 mg/kg, Female, F344	–	68100
9 h, 200 mg/kg, Female, Harlan Sprague Dawley	–	92000
10 h, 5 mg/kg, Male, F344	76.4	–
10 min, 10 mg/kg, Male, Harlan Sprague Dawley	–	3960
10 min, 50 mg/kg, Female, F344	–	34600
10 min, 50 mg/kg, Male, Harlan Sprague Dawley	–	38100
10 min, 200 mg/kg, Female, F344	–	77600
10 min, 200 mg/kg, Female, Harlan Sprague Dawley	–	95200
14 h, 5 mg/kg, Female, F344	354	–
14 h, 25 mg/kg, Female, F344	–	10700
14 h, 25 mg/kg, Female, Harlan Sprague-Dawley	–	10500
14 h, 100 mg/kg, Female, F344	–	54100
20 min, 10 mg/kg, Male, Harlan Sprague Dawley	5700	5760
20 min, 50 mg/kg, Female, F344	–	36100
20 min, 50 mg/kg, Male, Harlan Sprague Dawley	–	40000
20 min, 200 mg/kg, Female, F344	–	103000
20 min, 200 mg/kg, Female, Harlan Sprague Dawley	–	119000
40 min, 10 mg/kg, Female, Harlan Sprague-Dawley	–	2410
40 min, 10 mg/kg, Male, Harlan Sprague Dawley	–	3750
40 min, 50 mg/kg, Female, F344	–	26800
40 min, 50 mg/kg, Male, Harlan Sprague Dawley	–	40200
40 min, 200 mg/kg, Female, F344	–	103000
40 min, 200 mg/kg, Female, Harlan Sprague Dawley	–	126000
50 min, 10 mg/kg, Male, Harlan Sprague Dawley	4030	4440
